# In PubChem BioAssay AID686970 (National Center for Advancing Translational Sciences (NCATS), 2013):
# Hit rate of the full screen: of about 360,000 compounds, about 6,000 (1.7%) were called active. The inconclusive results got no clear call from the source; some entries with a clear call stand among them for comparison. The call rests on the fitted dose curve; in most records, active means well fitted cell-killing curve with a large enough effect; inconclusive means small, poorly fitted or top-dose-only effect, or effect the other way; inactive means flat fitted curve, though single readings scatter. No potency is given beside an inconclusive call; the fits are too rough.
# Experiment: qHTS for induction of synthetic lethality in tumor cells producing 2HG: qHTS for the HT-1080-NT fibrosarcoma cell line;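 further: NT is the 2HG producing partner of a matched IDH1 knockdown line; nearly all actives have a fitted effect of over 55% in size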;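 on activity, negative = less viability: 0% = DMSO-treated cells and -100% = media-only wells without cells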
# Conditions: HT-1080-NT fibrosarcoma viability, CellTiter-Glo ATP luminescence, 48 h; activity, negative = less viability: at 46.1 µM (top of the series) unless noted
# Procedure, shortened: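 750 cells/well, RPMI + 5% FBS; 2 h settle, compound pin-transfer, 48 h at 37 degrees C. CellTiter-Glo 10 min RT, luminescence. Normalized to DMSO and media-only wells.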
# Potency means the concentration at half of the fitted maximal effect; tags describe the fitted curve by direction and shape.
Structure (SMILES),Potency,"activity, negative = less viability"
Cc1cc(C)c2cc(C#N)c(N3CCCN(C(=S)NCCCN(C)C)CC3)nc2c1,"inconclusive [cytotoxic, full curve]",
Cc1ccc(-c2nc3ccc(Br)cn3c2Cc2cccc(F)c2)cc1,"inconclusive [cytotoxic, single point]",
CCCCNC(=O)C1(C)CCCCN1Cc1ccc2ccccc2c1 (centres undefined),,inactive: -29%
COc1cc(NC(C)CCCN)c2ncccc2c1Oc1ccccc1 (centres undefined),"inconclusive [cytotoxic, single point]",
CCCNC(=O)C1(C)CCCN(C(=O)c2ccc(OC)cc2OC)C1 (centres undefined),"inconclusive [rising, single point]",
O=C(CC1NC(=S)NC1=O)c1ccc(Cl)cc1 (centres undefined),"inconclusive [rising, partial curve, poor fit]",
O=C(c1cccc(S(=O)(=O)N2CCN(c3ccccc3)CC2)c1)N1CCCC(C(F)(F)F)C1 (centres undefined),"inconclusive [cytotoxic, single point]",
O=C(N/N=C/c1ccccc1F)c1cccc2ccccc12,,inactive: 2.04%
C/C(=N\OCC(=O)OCC(=O)NCc1ccccc1)c1ccc2c(c1)OCO2,,inconclusive: -33.9% [cytotoxic]
COc1cc(/C=C/c2cc[n+](C)cc2)ccc1OCC(=O)Nc1ccc(Cl)c(Cl)c1,"inconclusive [cytotoxic, single point]",
COc1cccc(Cn2c(C(C)n3c(-c4cnccn4)nc4ccccc43)nc3ccccc32)c1 (centres undefined),"inconclusive [cytotoxic, single point]",
COc1ccc(CCNC(=O)CCN2C(=O)C3CC=CCC3C2=O)cc1OC (centres undefined),,inactive: 2.74%
N#C/C(=C\c1ccc(F)cc1)c1nc(-c2ccco2)cs1,"inconclusive [cytotoxic, single point]",
O=C(O)C(Cc1c[nH]c2ccccc12)NS(=O)(=O)c1ccc(Cl)c(C(F)(F)F)c1 (centres undefined),,inactive: 6.06%
Cc1cc(C)cc(Cn2c3ccc(NC(=O)NCc4ccc(F)cc4)cc3c(=O)n2C)c1,,inactive: 2.97%
N#C/C(=C/c1ccc(N2CCCCCC2)o1)c1ccc(Cl)cc1,active: 5.62 µM,
Cc1ccc(NS(=O)(=O)c2ccc(NC(=O)c3ccc(-c4ccccc4)cc3)cc2)c(C)c1,"inconclusive [cytotoxic, single point]",
Cn1c(SCc2nc3ccccc3[nH]2)nnc1-c1cccnc1,,inconclusive: 4.19% [cytotoxic]
O=[N+]([O-])c1ccc(N=Nc2ncc[nH]2)cc1,active: 18.4 µM,
CC1CC(C)(C)Nc2ccc(OC(=O)c3ccco3)cc21 (centres undefined),active: 18.4 µM,
CN1CCN(c2ccc([N+](=O)[O-])cc2C(=O)c2ccc(Br)cc2)CC1,active: 13 µM,
Cc1cccc(NC(=O)CCN2C(=O)C3C4C=CC(C4)C3C2=O)n1 (centres undefined),,inactive: 21.3%
NS(=O)(=O)c1ccc(CCNC(=O)c2ccc(C#CC3(O)CCCCC3)cc2)cc1,"inconclusive [cytotoxic, single point]",
Oc1cccc(C(O)CNCc2ccc(-c3ccccc3)cc2)c1 (centres undefined),active: 16.4 µM,
CCOC(=O)C1=C(N)Oc2cc(O)ccc2C1c1ccc(C)cc1 (centres undefined),"inconclusive [cytotoxic, single point]",

Structure (SMILES),Potency,"activity, negative = less viability"
COc1cccc(CNc2cc(CSc3ccc(Cl)cc3)nc(C)n2)c1,"inconclusive [cytotoxic, single point]",
COc1cc2c(cc1OC)C(C)N(C(=O)c1cc(C)on1)CC2 (centres undefined),"inconclusive [cytotoxic, full curve]",
Cc1cccc(C)c1Nc1nnc(SC(C)C(=O)Nc2c(C)n(C)n(-c3ccccc3)c2=O)s1 (centres undefined),,inactive: 0.688%
Cn1c(/C=N/NC(=O)c2ccccc2)nc2ccccc21,active: 10 µM,
COc1ccc(Cn2c(-c3ccc(OC)c(O)c3)nc3ccccc32)cc1O,"inconclusive [cytotoxic, single point]",
COc1ccc(NCC(=O)N/N=C/C2CCCCC2)cc1,,inactive: -8.56%
Cc1ccc(S[C@@H](CCN2CC[C@H](C(C)(C)C)CCC2=O)c2ccccc2)cc1,,inconclusive: -30% [cytotoxic]
CC(CN1CCCCC1)OC(=O)c1cccc(F)c1 (centres undefined),"inconclusive [rising, partial curve, poor fit]",
COc1cc(-c2n[nH]c(=S)n2-c2ccc(Br)cc2)cc(OC)c1OC,,inactive: -3.67%
Cc1ccccc1-c1nc(-c2ccccn2)no1,active: 23.1 µM,
S=C(Nc1ccccc1)N1CCN(Cc2ccccc2)CC1,"inconclusive [rising, partial curve]",
CCOC(=O)CC(=O)CSc1nc2ccc(C)cc2cc1C#N,"inconclusive [cytotoxic, single point]",
CCN(c1ccccc1)S(=O)(=O)c1ccc(NC(=O)c2nc(S(C)(=O)=O)ncc2Cl)cc1,active: 18.4 µM,
CCOC(=O)c1cnc2ccc(OCC)cc2c1NCc1ccccc1OC,active: 20.6 µM,
CCOC(=O)c1cnc(-n2nc(C)cc2C)nc1N(CC)CC,"inconclusive [cytotoxic, partial curve, poor fit]",
CSc1nnc(NC(=O)c2nc(S(=O)(=O)Cc3cccc(C)c3)ncc2Cl)s1,"inconclusive [cytotoxic, single point]",
CC1CC(C)(C)CC2(C1)NC(=O)N(CC(=O)N(C)Cc1nc3ccccc3c(=O)[nH]1)C2=O (centres undefined),,inactive: -7.05%
OC(CNCC1CCCO1)Cn1c2ccccc2c2ccccc21 (centres undefined),"inconclusive [cytotoxic, single point]",
Cc1c(/C=N/Nc2nc3ccccc3[nH]2)c2ccccc2n1C,active: 20.6 µM,
O=C(NCC1CCCO1)c1ccc(NC(=O)c2ccc([N+](=O)[O-])cc2)cc1 (centres undefined),,inactive: -1.43%
COc1ccc(/C=N/n2cnc3c([nH]c4ccccc43)c2=O)cc1CO,,inactive: -0.0054%
CC(C)N1CCc2c(sc(NC(=O)c3ccc4ccccc4c3)c2C(N)=O)C1,"inconclusive [cytotoxic, single point]",
CCOC(=O)N1CCC(N(CCN(C)C)C(=S)Nc2ccc(Oc3ccccc3)cc2)CC1,,inactive: 2.27%
CC(=O)N/C(=C\c1ccc(F)cc1)C(=O)N(C)C,,inactive: -1.24%
CN1CCN(c2ccccc2NC(=O)c2ccc([N+](=O)[O-])o2)CC1,,inactive: 1.18%

Structure (SMILES),Potency,"activity, negative = less viability"
COc1ccc(/C=C(/C#N)C(=O)Nc2cc(C)ccc2C)cc1C(=O)O,"inconclusive [rising, single point]",
Cn1ccc2c(-c3ccc4[nH]ccc4c3)cc3c(c21)C1CCC3O1 (centres undefined),"inconclusive [cytotoxic, single point]",
Cc1onc(-c2ccccc2)c1C(=O)NNC(=S)NC(=O)c1ccc(F)cc1,"inconclusive [cytotoxic, full curve, poor fit]",
COc1ccccc1CN1C[C@@H]2C[C@@H](c3ccc(C)c(C)c3)N3CCC[C@@]23C1=O,,inactive: -27.6%
Cc1ccc(NC(=O)CCC(=O)N/N=C/c2ccc([N+](=O)[O-])o2)cc1C,"inconclusive [cytotoxic, single point]",
Cc1ccc(-c2cc3nc(NCCc4ccncc4)n(C)c(=O)c3s2)cc1,,inconclusive: -40.4%
O/N=C(/c1ccc(F)cc1)C1CC1c1c(F)cccc1Cl (centres undefined),"inconclusive [cytotoxic, single point]",
COc1ccccc1C1=CC(=O)C[C@H](c2ccc3c(c2)OCO3)C1,"inconclusive [cytotoxic, partial curve]",
COC(=O)c1ccc(-n2c(C)cc(C(=O)COC(=O)CC3Sc4ccccc4NC3=O)c2C)cc1 (centres undefined),,inactive: -1.03%
Cc1cc(C)nc(Nc2nc(C(N)Cc3ccccc3)cs2)n1 (centres undefined),active: 5.8 µM,
Cc1cccc2[nH]c3c(N4CC=C(c5ccc(F)cc5)CC4)ncnc3c12,,inconclusive: -53.3%
COc1ccc(C(=O)Nc2ccc(NC(=O)c3ccco3)cc2)cc1,"inconclusive [cytotoxic, single point]",
COC(=O)[C@@]1(Cc2ccc(OC)cc2)[C@H]2c3cc(C(=O)N4CCCC4)n(Cc4ccccn4)c3C[C@H]2CN1C(=O)c1ccccc1,"inconclusive [cytotoxic, single point]",
COC(=O)COc1ccc(NS(=O)(=O)c2cccc([N+](=O)[O-])c2)cc1,,inactive: -3.75%
CC(C)COc1ccc(C(=O)N(CC(=O)Nc2ccccc2C(F)(F)F)Cc2ccco2)cc1,"inconclusive [cytotoxic, single point]",
CN1CCc2c(sc3c2C(=O)NC(c2ccco2)N3)C1 (centres undefined),,inactive: 0.841%
O=C(O)c1ccccc1C(=O)NNC(=O)C(c1ccccc1)c1ccccc1,,inactive: 6.45%
COc1ccc(C(=O)N(C)Cc2cnn(Cc3ccccc3)c2)cc1S(=O)(=O)N1CCOCC1,active: 5.8 µM,
NC(COCc1ccccc1)c1csc(Nc2ccc(C(=O)NCCO)cc2)n1 (centres undefined),,inactive: -7.34%
COc1cccc(/C=N/NC(=O)CNC(=O)COc2ccccc2)c1O,"inconclusive [cytotoxic, single point]",
Nc1c(Cl)ncnc1N/N=C/c1ccccn1,"inconclusive [cytotoxic, full curve]",
COc1ccc(C(O)c2ncc(-c3cccc4ccccc34)[nH]2)cc1F (centres undefined),"inconclusive [cytotoxic, single point]",
COc1ccccc1NC(=O)/C=C/C(N)=O,active: 8.91 µM,
C=CC(=O)Nc1cccc(Oc2cc(Cl)nc3[nH]ccc23)c1,"inconclusive [cytotoxic, single point]",
